These results are taken from the RNAGym collection of RNA variant scans (doi:10.7554/elife.90254).

The source gives no read counts; variants with many changes may rest on few reads.

B1: LINE1-full (parent)
chain: UACGUAGGUGGUUUUCCCCUGAUAGUGCUAAGGGGGCCUGGAAGUUUGGACUGGGCAGAGCUCAACACAGCGUGGCAAAGUGGCUGUGGCUAGACUGCCUCUCUGGAUUCCUCGUCACUCAGCAGGGCAUCUCUGAGAGAAAUGCC

In this series the parent is B1. The series is described as follows: self-cleavage, relative activity (ratio to wild type); higher = more cleavage; in vitro, sequencing; the parent is a self-cleaving ribozyme.
For AACGUAGGUGGUUUUCCCCUGAUAGUGCUAAGGGGGCCUGGAAGUUUGGACUGGGCAGAGCUCAACACAGCGUGGCAAAGUGGCUGUGGCUAGACUGCCUCUCUGGAUUCCUCGUCACUCAGCAGGGCAUCCCUGAGAGAAGUGCC [U1A U132C A142G], the self-cleavage worked out at 1.26.

Turning to AACGUAGGUGGUUUUCCCCUGAUAGUGCUAAGGGGGCCUGGAAGUUUGGACUGGGCAGAGCUCAACACAGCGAGGCAAAGUGGCUGUGGCUAGACUGCCUCUCUGGAUUCCUCGUCACUCAGCAGGGCAUCUCUGAGGGAAAUGCC [U1A U73A A138G], the self-cleavage amounted to 1.55.

As to CACGUGGGUGGUUUUCCCCUGAUAGUGCUAAGGGGGCCUGGAAGUUUGGACUGGGCAGAGCUCAGCACAGCGUGGCAAAGUGGCUGUGGCUAGACUGCCUCUCUGGAUUCCUCGUCACUCAGCAGGGCAUCUCUGAGAGAAAUGCC [U1C A6G A65G], the self-cleavage stood at 0.23.

As to CUCGUAGGUGGUUUUCCCCUGAUAGAGCUAAGGGGGCCUGGAAGUUUGGACUGGGCAGAGCUCAACACAGCGUGGCAAAGUGGCUGUGGCUAGACUGCCUCUCUGGAUUCCUCGUCACUCAGCAGGGCAUCUCUGAGAGAAAUGCC [U1C A2U U26A], the self-cleavage came out at 0.24.

On to AACGUAGGUGGUUUUCCCCUGAUAGUGCUAAGGGGGCCUGGAAGUUUGGACUGGGCAGAGCUCAACACAGCGUGGCAAAGUGGCUGUGGCUAGACUGCCUCUCUGGAUUCCUCGUCACCCAGCAGGGCAUCUCAGAGAGAAAUGCC [U1A U119C U134A], for which the self-cleavage was 0.95.

For CACGUAGGUGGUUUUCCCCUGGUAGUGCUAAGGGGGCCUGGAAGUUUGGACUGGGCAGAGCUCAACACAGCGUGGCAAAGUGGCUGUGGCUAGACCGCCUCUCUGGAUUCCUCGCCACUCAGCAGGGCAUCUCUGAGAGAAACGCC [U1C A22G U96C U115C U143C], the self-cleavage is 0.

Take CGCGUAGGUGGUUUUCCCCUGAUAGUGCUAAGGGGGCCUGGAAGUUUGGACUGGGCAGAGCUCAACACAGCGUGGCAAAGUGGCUGUGGCUAGACUGCCUCUCUGGAUUCCUCGUAACUCAGCAGGGCAUCUCUGAGAGAAGUGCC [U1C A2G C116A A142G]: the self-cleavage worked out at 0.92.

With CGCGUAGGUGGUUUUCCCCUGAUAGAGCUAAGGGGGCCUGGAAGUUUGGACUGGGCAGAGCUCAACACAGCGUGGCAAAGUGGCUGUGGCUAGACUGCCUCUCUGGAUUCCUCGUCACUCAGCAGGGCAUCUCUGAGAGAAAAGCC [U1C A2G U26A U143A], the self-cleavage was found to be 0.67.

As for AACGUAGGUGGUUUUCCCCUGAUAGUGCUAAGGGGGCCUGGAAGUUUGGACUGGGCAGAGCUCAACACAGCGUGGCAAAGUGGCUGUGGCUAGACUGCCUCUCAGGAUUCCUCGUCACUCAGCAGGGCGUCUCUGAGAGAAAUGCC [U1A U104A A129G], the self-cleavage stood at 1.39.

CGCGUAGGUGGUUUUCCCCUGAUAGUGCUAAGGGGGCCUGGAAGUUUGGACUGGGCUGAGCUCAACACAGCGUGGCAAAGAGGCUGUGGCUAGACUGCCUCUCUGGAUUCCUCGUCACUCAGCAGGGCAUCUCUGAGAGAAAUGCC [U1C A2G A57U U81A]: the self-cleavage stood at 0.14.

As for CGCGUAGGUGGGUUUCCCCUGAUAGUGCUAAGGGGGCCUGGAAGUUUGGACUGGGCAGAGCUCAACACAGCGUGGCAAAGUGGCUGUGGCUAGACUGCCUCUCUGGAUUCCUCGUCACUCAGCAGGGCAUCUCUGAGAGAAAUGCC [U1C A2G U12G], the self-cleavage was found to be 0.

With CGCGUAGGUGGUUUUCCCCUGAUUGUGCUAAGGGGGCCUGGAAGUUUGGACUGGGCAGAGCUCAACACAGCGUGGCAAGGUGGCUGUGGCUAGACUGCCUCUCUGGAUUCCUCGUCACUCAGCAGGGCAUCUCUGAGAGAGAUGCC [U1C A2G A24U A79G A141G], the self-cleavage came out at 0.82.

For CACGUAGGUGGUUUUCCCCUGAUGGUGCUAAGGGGGCCUGGAAGUUUGGACUGGGCAGAGCUCAACGCAGCGUGGCAAAGUGGCUGUGGCUAGACUGCCUCUCUGGAUUCCUCGUCACUCAGCAGGGCAUCUCUGAGAGAAAUGCC [U1C A24G A67G], the self-cleavage amounted to 0.71.

CCCGUAGGUGGUUUUCCCCUGAUAGUGCUAAGGGGGCCUGGAGGUUUGGACUGGGCUGAGCUCAACACAGCGUGGCAAAGUGGCUGUGGCUAGACUGCCUCUCUGGAUUCCUCGUCACUCAGCAGGGCAUCUCCGAGGGAAAUGCC [U1C A2C A43G A57U U134C A138G]: the self-cleavage was determined as 0.43.

Turning to CACGUAGGUGGUUUUCCCCUGGUAGUGCUAAGGGGGCCUGGAAGUUUGGUCUGGGCAGAGCUCAACACAGCGUGGCAAAGUGGCUGUGGCUAGACUGCCUCUCUGGAUUCCUCGUCACUCAGCAGGGCAUCUCUGAGAGGAGUGCC [U1C A22G A50U A140G A142G], the self-cleavage worked out at 1.11.

With CGCGUAGGUGGUUUUCCCCUGAUAGUGCUAAGGGGGCCUGGAAGUUUGGACUGGGCAGAGCUCAACACAGCGCGGCAAAGUGGCUGUGGCUAGACUGCCUCUCUGGAUUCCUCGUCACUCAGCAGGGCAUCUCUGAGAGAAAUGCC [U1C A2G U73C], the self-cleavage was 0.

For the variant AACGUAGGUGGUUUUCCCCUGAUAGUGCUAAGGGGGCCUGGAAGUUUGGACAGGGCAGAGCUCAACACAGCGUGGCAAAGUGGCUGUGGCUAGACUGCCUCCCUGGAUUCCUCGUCACUCAGCAGGGCAUCUCUGAGAGAAAUGCC [U1A U52A U102C], the self-cleavage came out at 0.88.

Regarding CACGUUGGUGGUUUUCCCCUGAUAGUGCUAAGGGGGCCUGGAAGUUUGGACUGGGCAGAGCUCAGCACAGCGUGGCAAAGUGGCUGUGGCUAGACUGCCUCUCUGGAUUCCUCGUCGCUCUGCAGGGCAUCUCUGAGAGAAAUGCC [U1C A6U A65G A117G A121U], the self-cleavage amounted to 0.

For AACGUAGGUGGUUUUCCCCUGAUAGUGCUAAGGGGGCCUGGAAGUUUGGACUGGGCAGAGCCCAACACAGCGUGGCAAAGUGGCUGAGGCUAGACUGCCUCUCCGGAUUCCUCGUCACUCAGCAGGGCGUCUCUGAGAGAAACGCC [U1A U62C U87A U104C A129G U143C], the self-cleavage was 0.

Consider CACGUAGGUGGUUUUCCCCUGGUAGUGCUAAGGGGGCCUGGAAGUUUGGACUGGGCAGAGCUCAACACAGCGCGGCAAAGUGGCUGUGGCUAGACUGCCUCUCUGGAUUCCUCGUCACUCAGCAGGGCAUCUCUGAGAGAAAUGCC [U1C A22G U73C], for which the self-cleavage was found to be 0.77.
